# Measured values taken from the supplement of paper PMC7125110.
# This sample is rich in variants without activity.
# B1: glmS ribozyme (parent)
# chain: AUAAAAGCGCCAGAACUACAGAAAUGUAGUUGACGAGGAGGAGGUUUAUCGAAUUUUCGGCGGAUGCCUCCAAA
# Key:
# Conditions in all cases: with glucosamine-6-phosphate
# glucosamine-6-phosphate [1] = variants of: B1; assay: self-cleavage kobs at 40 uM GlcN6P; higher = faster cleavage; RNA array
# Method in brief: (§1)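 kobs was derived by fitting per-tile medians to one- or two-exponential decays after normalising signals to baseline and to non-cleaving reference variants. Those signals came from barcoded ribozyme variants transcribed in situ by E. coli RNA polymerase on sequenced MiSeq chips, followed through a hybridised Cy3 probe at 37 °C and imaged over ~14 h. Glucosamine-6-phosphate (40 μM to 10 mM) in HEPES/KCl/Mg(OAc)2 buffer was flowed in. Weighted Michaelis–Menten fits across concentrations then gave kcat and KM.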
# glucosamine-6-phosphate [2] = variants of: B1; assay: self-cleavage kobs at 640 uM GlcN6P; higher = faster cleavage; RNA array
# Method in brief: as §1
# glucosamine-6-phosphate [3] = variants of: B1; assay: self-cleavage kobs at 160 uM GlcN6P; higher = faster cleavage; RNA array
# Method in brief: as §1
# glucosamine-6-phosphate [4] = variants of: B1; assay: self-cleavage kobs at 2500 uM GlcN6P; higher = faster cleavage; RNA array
# Method in brief: as §1
# glucosamine-6-phosphate [5] = variants of: B1; assay: self-cleavage kobs at 10000 uM GlcN6P; higher = faster cleavage; RNA array
# Method in brief: as §1
Variant,self-cleavage kobs at 40 uM GlcN6P (glucosamine-6-phosphate [1]),self-cleavage kobs at 640 uM GlcN6P (glucosamine-6-phosphate [2]),self-cleavage kobs at 160 uM GlcN6P (glucosamine-6-phosphate [3]),self-cleavage kobs at 2500 uM GlcN6P (glucosamine-6-phosphate [4]),self-cleavage kobs at 10000 uM GlcN6P (glucosamine-6-phosphate [5])
C8A A15U,< 1e-05 s⁻¹,< 1e-05 s⁻¹,< 1e-05 s⁻¹,< 1e-05 s⁻¹,< 1e-05 s⁻¹
G7A U31G,< 1e-05 s⁻¹,–,< 1e-05 s⁻¹,–,–
C8A C11A U54C,< 1e-05 s⁻¹,–,–,< 1e-05 s⁻¹,–
G7U U47A C50U U57C G63A,< 1e-05 s⁻¹,–,–,–,< 1e-05 s⁻¹
C8A,< 1e-05 s⁻¹,< 1e-05 s⁻¹,< 1e-05 s⁻¹,< 1e-05 s⁻¹,< 1e-05 s⁻¹
A6U G37C C70G,< 1e-05 s⁻¹,–,–,–,–
G7U C61G,< 1e-05 s⁻¹,< 1e-05 s⁻¹,< 1e-05 s⁻¹,< 1e-05 s⁻¹,–
G7U A14U U46A U56G G63U,< 1e-05 s⁻¹,–,–,–,< 1e-05 s⁻¹
G7C G9A,< 1e-05 s⁻¹,< 1e-05 s⁻¹,< 1e-05 s⁻¹,–,< 1e-05 s⁻¹
C8A C16G A52C,< 1e-05 s⁻¹,–,–,–,< 1e-05 s⁻¹
A6U G32A,< 1e-05 s⁻¹,–,< 1e-05 s⁻¹,–,–
G7A G38U C58A,< 1e-05 s⁻¹,–,–,–,< 1e-05 s⁻¹
G7U A12U,< 1e-05 s⁻¹,< 1e-05 s⁻¹,< 1e-05 s⁻¹,< 1e-05 s⁻¹,< 1e-05 s⁻¹
G7A U45A A53G U56A,< 1e-05 s⁻¹,–,–,–,–
G7U U46C,< 1e-05 s⁻¹,< 1e-05 s⁻¹,< 1e-05 s⁻¹,< 1e-05 s⁻¹,–
G7A C34G,< 1e-05 s⁻¹,–,–,< 1e-05 s⁻¹,< 1e-05 s⁻¹
G7C A39U C61U,< 1e-05 s⁻¹,–,–,–,< 1e-05 s⁻¹
G7U U46G A52U G59U,< 1e-05 s⁻¹,–,–,< 1e-05 s⁻¹,–
G7A G44U,< 1e-05 s⁻¹,< 1e-05 s⁻¹,< 1e-05 s⁻¹,< 1e-05 s⁻¹,< 1e-05 s⁻¹
G7A G9A,< 1e-05 s⁻¹,< 1e-05 s⁻¹,< 1e-05 s⁻¹,< 1e-05 s⁻¹,–
G7A G62A,< 1e-05 s⁻¹,< 1e-05 s⁻¹,–,< 1e-05 s⁻¹,< 1e-05 s⁻¹
G7A G63U,< 1e-05 s⁻¹,–,–,–,< 1e-05 s⁻¹
G7C G66A,< 1e-05 s⁻¹,< 1e-05 s⁻¹,–,< 1e-05 s⁻¹,< 1e-05 s⁻¹

Variant,self-cleavage kobs at 40 uM GlcN6P (glucosamine-6-phosphate [1]),self-cleavage kobs at 640 uM GlcN6P (glucosamine-6-phosphate [2]),self-cleavage kobs at 160 uM GlcN6P (glucosamine-6-phosphate [3]),self-cleavage kobs at 2500 uM GlcN6P (glucosamine-6-phosphate [4]),self-cleavage kobs at 10000 uM GlcN6P (glucosamine-6-phosphate [5])
G7U A15U A64C,< 1e-05 s⁻¹,–,–,–,< 1e-05 s⁻¹
G7U C11A,< 1e-05 s⁻¹,< 1e-05 s⁻¹,< 1e-05 s⁻¹,–,< 1e-05 s⁻¹
G7U C16A,< 1e-05 s⁻¹,–,–,< 1e-05 s⁻¹,< 1e-05 s⁻¹
G7U C16G,< 1e-05 s⁻¹,< 1e-05 s⁻¹,–,–,< 1e-05 s⁻¹
A6U G40C,< 1e-05 s⁻¹,–,–,–,–
A6U G40A,< 1e-05 s⁻¹,–,< 1e-05 s⁻¹,–,–
C8A G37C A39U,< 1e-05 s⁻¹,–,–,–,< 1e-05 s⁻¹
G7C A42C G44A,< 1e-05 s⁻¹,< 1e-05 s⁻¹,–,< 1e-05 s⁻¹,< 1e-05 s⁻¹
G7A A36C G63A,< 1e-05 s⁻¹,–,–,–,–
C8A A64G,< 1e-05 s⁻¹,< 1e-05 s⁻¹,< 1e-05 s⁻¹,< 1e-05 s⁻¹,< 1e-05 s⁻¹
G7A G60A,< 1e-05 s⁻¹,< 1e-05 s⁻¹,< 1e-05 s⁻¹,–,–
G7A G60C,< 1e-05 s⁻¹,–,–,–,< 1e-05 s⁻¹
A6U G59C G60U,< 1e-05 s⁻¹,< 1e-05 s⁻¹,–,–,< 1e-05 s⁻¹
C8A A14C,< 1e-05 s⁻¹,< 1e-05 s⁻¹,< 1e-05 s⁻¹,< 1e-05 s⁻¹,< 1e-05 s⁻¹
G7C U49A C61A,< 1e-05 s⁻¹,< 1e-05 s⁻¹,–,–,–
G7C C10U A15U U49C,< 1e-05 s⁻¹,–,–,–,< 1e-05 s⁻¹
G7U G38A A48G G60C,< 1e-05 s⁻¹,–,–,–,–
C8A A33C,< 1e-05 s⁻¹,< 1e-05 s⁻¹,< 1e-05 s⁻¹,< 1e-05 s⁻¹,< 1e-05 s⁻¹
A6U G41U U47C,< 1e-05 s⁻¹,–,–,–,< 1e-05 s⁻¹
G7A C61A,< 1e-05 s⁻¹,–,–,–,–
G7U G29C G59C,< 1e-05 s⁻¹,–,–,–,–
G7U U47G,< 1e-05 s⁻¹,< 1e-05 s⁻¹,< 1e-05 s⁻¹,–,< 1e-05 s⁻¹
G7U U47C,< 1e-05 s⁻¹,< 1e-05 s⁻¹,< 1e-05 s⁻¹,–,< 1e-05 s⁻¹
